Residue numbers refer to the chain shown, from its start. This is one part of the list.
T1: RBFOX1 RRM (Homo sapiens, UniProt Q9NWB1 109-208)
T1 sequence: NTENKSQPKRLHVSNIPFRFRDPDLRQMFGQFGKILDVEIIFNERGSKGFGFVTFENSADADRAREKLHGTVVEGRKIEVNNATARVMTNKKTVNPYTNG

B1: GGGUUUA (DNA:RNA)
RNA: GGGAGACCGGAAUUCAGAUUGUCCGGGUUUAUUAAAUCCCGUCGUAGCCACCA
DNA 1: CAATCTGAATTCCGGTCTCCC
DNA 2: TGGTGGCTACGACGGGATT
B2: AGAUCCA (DNA:RNA)
RNA: B1 RNA with G25A, G27A, U29C, U30C
DNA 1: CAATCTGAATTCCGGTCTCCC
DNA 2: TGGTGGCTACGACGGGATT
B3: CGGCCGG (DNA:RNA)
RNA: B1 RNA with G25C, U28C, U29C, U30G, A31G
DNA 1: CAATCTGAATTCCGGTCTCCC
DNA 2: TGGTGGCTACGACGGGATT
B4: ACCCCCC (DNA:RNA)
RNA: GGGAGACCGGAAUUCAGAUUGUCCACCCCCCUUAAAUCCCGUCGUAGCCACCA
DNA 1: CAATCTGAATTCCGGTCTCCC
DNA 2: TGGTGGCTACGACGGGATT
B5: AACAUCG (DNA:RNA)
RNA: B4 RNA with C26A, C28A, C29U, C31G
DNA 1: CAATCTGAATTCCGGTCTCCC
DNA 2: TGGTGGCTACGACGGGATT
B6: CGCGUGU (DNA:RNA)
RNA: B1 RNA with G25C, G27C, U28G, U30G, A31U
DNA 1: CAATCTGAATTCCGGTCTCCC
DNA 2: TGGTGGCTACGACGGGATT
B7: CAGGCCU (DNA:RNA)
RNA: B4 RNA with A25C, C26A, C27G, C28G, C31U
DNA 1: CAATCTGAATTCCGGTCTCCC
DNA 2: TGGTGGCTACGACGGGATT
B8: UUGUAUA (DNA:RNA)
RNA: B1 RNA with G25U, G26U, U29A
DNA 1: CAATCTGAATTCCGGTCTCCC
DNA 2: TGGTGGCTACGACGGGATT
B9: CCUUGAA (DNA:RNA)
RNA: B1 RNA with G25C, G26C, G27U, U29G, U30A
DNA 1: CAATCTGAATTCCGGTCTCCC
DNA 2: TGGTGGCTACGACGGGATT
B10: UUCUAUU (DNA:RNA)
RNA: B1 RNA with G25U, G26U, G27C, U29A, A31U
DNA 1: CAATCTGAATTCCGGTCTCCC
DNA 2: TGGTGGCTACGACGGGATT
B11: GUGGCUU (DNA:RNA)
RNA: B1 RNA with G26U, U28G, U29C, A31U
DNA 1: CAATCTGAATTCCGGTCTCCC
DNA 2: TGGTGGCTACGACGGGATT
B12: AUACAUA (DNA:RNA)
RNA: B4 RNA with C26U, C27A, C29A, C30U, C31A
DNA 1: CAATCTGAATTCCGGTCTCCC
DNA 2: TGGTGGCTACGACGGGATT
B13: GUUAAAA (DNA:RNA)
RNA: B1 RNA with G26U, G27U, U28A, U29A, U30A
DNA 1: CAATCTGAATTCCGGTCTCCC
DNA 2: TGGTGGCTACGACGGGATT
B14: UUGGAGA (DNA:RNA)
RNA: B1 RNA with G25U, G26U, U28G, U29A, U30G
DNA 1: CAATCTGAATTCCGGTCTCCC
DNA 2: TGGTGGCTACGACGGGATT
B15: CUGGCAC (DNA:RNA)
RNA: B4 RNA with A25C, C26U, C27G, C28G, C30A
DNA 1: CAATCTGAATTCCGGTCTCCC
DNA 2: TGGTGGCTACGACGGGATT
B16: ACCGCCG (DNA:RNA)
RNA: B4 RNA with C28G, C31G
DNA 1: CAATCTGAATTCCGGTCTCCC
DNA 2: TGGTGGCTACGACGGGATT
B17: ACGAAAG (DNA:RNA)
RNA: B4 RNA with C27G, C28A, C29A, C30A, C31G
DNA 1: CAATCTGAATTCCGGTCTCCC
DNA 2: TGGTGGCTACGACGGGATT
B18: GGAGAGA (DNA:RNA)
RNA: B1 RNA with G27A, U28G, U29A, U30G
DNA 1: CAATCTGAATTCCGGTCTCCC
DNA 2: TGGTGGCTACGACGGGATT
B19: CGAAGUG (DNA:RNA)
RNA: B1 RNA with G25C, G27A, U28A, U29G, A31G
DNA 1: CAATCTGAATTCCGGTCTCCC
DNA 2: TGGTGGCTACGACGGGATT
B20: GCGACGG (DNA:RNA)
RNA: B4 RNA with A25G, C27G, C28A, C30G, C31G
DNA 1: CAATCTGAATTCCGGTCTCCC
DNA 2: TGGTGGCTACGACGGGATT
B21: CGGGAGG (DNA:RNA)
RNA: B1 RNA with G25C, U28G, U29A, U30G, A31G
DNA 1: CAATCTGAATTCCGGTCTCCC
DNA 2: TGGTGGCTACGACGGGATT
B22: AUAAUCA (DNA:RNA)
RNA: B4 RNA with C26U, C27A, C28A, C29U, C31A
DNA 1: CAATCTGAATTCCGGTCTCCC
DNA 2: TGGTGGCTACGACGGGATT
B23: GUUCCUG (DNA:RNA)
RNA: B4 RNA with A25G, C26U, C27U, C30U, C31G
DNA 1: CAATCTGAATTCCGGTCTCCC
DNA 2: TGGTGGCTACGACGGGATT
B24: ACACAAC (DNA:RNA)
RNA: B4 RNA with C27A, C29A, C30A
DNA 1: CAATCTGAATTCCGGTCTCCC
DNA 2: TGGTGGCTACGACGGGATT
B25: UUGGCAA (DNA:RNA)
RNA: B1 RNA with G25U, G26U, U28G, U29C, U30A
DNA 1: CAATCTGAATTCCGGTCTCCC
DNA 2: TGGTGGCTACGACGGGATT
B26: AAAUUAU (DNA:RNA)
RNA: B1 RNA with G25A, G26A, G27A, U30A, A31U
DNA 1: CAATCTGAATTCCGGTCTCCC
DNA 2: TGGTGGCTACGACGGGATT
B27: CUUUACC (DNA:RNA)
RNA: B4 RNA with A25C, C26U, C27U, C28U, C29A
DNA 1: CAATCTGAATTCCGGTCTCCC
DNA 2: TGGTGGCTACGACGGGATT
B28: UACUUUA (DNA:RNA)
RNA: B1 RNA with G25U, G26A, G27C
DNA 1: CAATCTGAATTCCGGTCTCCC
DNA 2: TGGTGGCTACGACGGGATT
B29: CCUUUCU (DNA:RNA)
RNA: B4 RNA with A25C, C27U, C28U, C29U, C31U
DNA 1: CAATCTGAATTCCGGTCTCCC
DNA 2: TGGTGGCTACGACGGGATT
B30: AGCGAGA (DNA:RNA)
RNA: B4 RNA with C26G, C28G, C29A, C30G, C31A
DNA 1: CAATCTGAATTCCGGTCTCCC
DNA 2: TGGTGGCTACGACGGGATT
B31: GGACGAG (DNA:RNA)
RNA: B1 RNA with G27A, U28C, U29G, U30A, A31G
DNA 1: CAATCTGAATTCCGGTCTCCC
DNA 2: TGGTGGCTACGACGGGATT

Target: T1, RBFOX1 RRM
Assay: EMSA; HiTS-Eq, 1 nM pool, 10 min; buffer printed only for the single-RNA assays: 10 mM Tris pH 7.5, 150 mM NaCl, 3.4 mM EDTA, 0.001% NP-40, 30 C
Conditions: tags: His6 N-terminal (pET28a); label: 5' 32P
Outline: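 A pool of RNA with 7 randomized nucleotides, 5′-radiolabelled and with DNA-annealed flanks, was equilibrated at 1 nM for 10 min in 50 µL with purified RbFox RRM, wild type or mutant, across increasing protein concentrations. Free RNA was separated by 8% native PAGE, excised, reverse-transcribed, barcoded by PCR and sequenced. Relative association constants were obtained from read-count changes of each RNA species versus the control reaction and normalised to the cognate motif.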

Row | Binder | binding signal
1 | B1 | 0.0165 KA relative to UGCAUGU
2 | B2 | 0.00246 KA relative to UGCAUGU
3 | B3 | 0.0119 KA relative to UGCAUGU
4 | B4 | 0.00425 KA relative to UGCAUGU
5 | B5 | 0.00596 KA relative to UGCAUGU
6 | B6 | 0.0198 KA relative to UGCAUGU
7 | B7 | 0.013 KA relative to UGCAUGU
8 | B8 | 0.0063 KA relative to UGCAUGU
9 | B9 | 0.0087 KA relative to UGCAUGU
10 | B10 | 0.00688 KA relative to UGCAUGU
11 | B11 | 0.0272 KA relative to UGCAUGU
12 | B12 | 0.000884 KA relative to UGCAUGU
13 | B13 | 0.00575 KA relative to UGCAUGU
14 | B14 | 0.00954 KA relative to UGCAUGU
15 | B15 | 0.0183 KA relative to UGCAUGU
16 | B16 | 0.00411 KA relative to UGCAUGU

Row | Binder | binding signal
17 | B17 | 0.00611 KA relative to UGCAUGU
18 | B18 | 0.0135 KA relative to UGCAUGU
19 | B19 | 0.0164 KA relative to UGCAUGU
20 | B20 | 0.0219 KA relative to UGCAUGU
21 | B21 | 0.0133 KA relative to UGCAUGU
22 | B22 | 0.00259 KA relative to UGCAUGU
23 | B23 | 0.0175 KA relative to UGCAUGU
24 | B24 | 0.00126 KA relative to UGCAUGU
25 | B25 | 0.0145 KA relative to UGCAUGU
26 | B26 | 0.00144 KA relative to UGCAUGU
27 | B27 | 0.00108 KA relative to UGCAUGU
28 | B28 | 0.00341 KA relative to UGCAUGU
29 | B29 | 0.00554 KA relative to UGCAUGU
30 | B30 | 0.0112 KA relative to UGCAUGU
31 | B31 | 0.0194 KA relative to UGCAUGU
